Binding data for 3 molecules are collected here from PMC4682171.

Chains of the proteins cited; added tags and fusions are not shown. Lines headed by an entry give the natural chain unless they say otherwise; changes in a name come on top.
UniProt Q13616: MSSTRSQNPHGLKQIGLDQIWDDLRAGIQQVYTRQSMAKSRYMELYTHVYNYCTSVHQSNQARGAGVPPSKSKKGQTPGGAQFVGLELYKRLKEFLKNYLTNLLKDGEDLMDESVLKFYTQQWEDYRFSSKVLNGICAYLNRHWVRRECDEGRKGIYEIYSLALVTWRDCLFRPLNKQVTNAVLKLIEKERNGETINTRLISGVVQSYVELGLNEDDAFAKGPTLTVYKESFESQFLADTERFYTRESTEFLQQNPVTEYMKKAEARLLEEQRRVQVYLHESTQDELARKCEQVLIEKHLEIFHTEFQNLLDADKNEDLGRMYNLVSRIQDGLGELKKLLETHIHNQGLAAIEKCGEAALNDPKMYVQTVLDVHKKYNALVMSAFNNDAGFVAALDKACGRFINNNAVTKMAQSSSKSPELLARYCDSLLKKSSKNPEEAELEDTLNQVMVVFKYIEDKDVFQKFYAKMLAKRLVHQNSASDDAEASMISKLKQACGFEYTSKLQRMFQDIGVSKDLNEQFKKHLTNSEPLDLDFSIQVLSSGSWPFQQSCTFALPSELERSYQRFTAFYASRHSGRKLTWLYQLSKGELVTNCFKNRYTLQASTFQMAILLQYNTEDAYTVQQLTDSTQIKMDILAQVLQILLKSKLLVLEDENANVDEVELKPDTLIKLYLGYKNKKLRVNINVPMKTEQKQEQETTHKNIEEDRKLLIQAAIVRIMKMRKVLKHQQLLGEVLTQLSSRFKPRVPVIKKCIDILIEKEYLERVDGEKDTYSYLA
UniProt Q13617: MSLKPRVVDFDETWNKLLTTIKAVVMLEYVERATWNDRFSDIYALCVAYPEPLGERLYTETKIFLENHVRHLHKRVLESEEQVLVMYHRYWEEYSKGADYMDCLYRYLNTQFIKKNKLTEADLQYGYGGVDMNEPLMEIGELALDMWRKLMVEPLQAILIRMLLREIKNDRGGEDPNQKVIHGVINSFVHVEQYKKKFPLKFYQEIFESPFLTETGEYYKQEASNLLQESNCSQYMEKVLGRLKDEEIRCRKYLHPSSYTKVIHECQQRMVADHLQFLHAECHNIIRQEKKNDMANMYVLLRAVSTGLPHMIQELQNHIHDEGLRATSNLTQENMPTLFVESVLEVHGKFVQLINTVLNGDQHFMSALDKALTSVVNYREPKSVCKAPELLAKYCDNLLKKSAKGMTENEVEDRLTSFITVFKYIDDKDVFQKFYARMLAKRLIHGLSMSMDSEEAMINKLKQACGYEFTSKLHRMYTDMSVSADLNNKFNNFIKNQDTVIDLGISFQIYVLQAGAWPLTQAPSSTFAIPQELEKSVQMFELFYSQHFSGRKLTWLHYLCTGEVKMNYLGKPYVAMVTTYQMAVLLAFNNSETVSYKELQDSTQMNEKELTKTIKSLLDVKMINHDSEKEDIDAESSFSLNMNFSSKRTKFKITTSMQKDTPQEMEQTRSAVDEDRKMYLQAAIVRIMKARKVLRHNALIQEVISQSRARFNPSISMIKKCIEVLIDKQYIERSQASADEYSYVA
UniProt Q93034: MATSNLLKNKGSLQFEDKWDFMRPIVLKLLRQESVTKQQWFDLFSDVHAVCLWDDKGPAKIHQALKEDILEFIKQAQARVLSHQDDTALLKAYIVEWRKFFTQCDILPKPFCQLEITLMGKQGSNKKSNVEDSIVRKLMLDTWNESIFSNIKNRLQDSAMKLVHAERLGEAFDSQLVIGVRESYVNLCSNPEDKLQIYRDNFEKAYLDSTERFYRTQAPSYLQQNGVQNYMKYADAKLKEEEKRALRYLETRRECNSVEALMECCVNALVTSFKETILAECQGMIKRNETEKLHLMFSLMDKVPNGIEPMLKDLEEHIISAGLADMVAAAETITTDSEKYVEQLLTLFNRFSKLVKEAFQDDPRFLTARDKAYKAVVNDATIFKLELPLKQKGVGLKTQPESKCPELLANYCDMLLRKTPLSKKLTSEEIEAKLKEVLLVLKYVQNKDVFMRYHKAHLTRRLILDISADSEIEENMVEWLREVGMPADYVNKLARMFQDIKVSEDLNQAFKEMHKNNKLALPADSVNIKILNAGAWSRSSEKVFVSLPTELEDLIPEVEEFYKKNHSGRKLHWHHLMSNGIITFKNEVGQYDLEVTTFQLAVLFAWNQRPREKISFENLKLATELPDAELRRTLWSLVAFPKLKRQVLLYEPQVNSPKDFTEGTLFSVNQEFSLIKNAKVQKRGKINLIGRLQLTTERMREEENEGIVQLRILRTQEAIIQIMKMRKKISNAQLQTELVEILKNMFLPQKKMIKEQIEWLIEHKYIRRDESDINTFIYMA
UniProt P63208: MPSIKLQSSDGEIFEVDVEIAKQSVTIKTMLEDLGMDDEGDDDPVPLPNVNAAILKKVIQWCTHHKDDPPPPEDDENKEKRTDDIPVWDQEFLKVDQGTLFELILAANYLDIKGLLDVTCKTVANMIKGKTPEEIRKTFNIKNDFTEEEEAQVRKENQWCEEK
UniProt P48729: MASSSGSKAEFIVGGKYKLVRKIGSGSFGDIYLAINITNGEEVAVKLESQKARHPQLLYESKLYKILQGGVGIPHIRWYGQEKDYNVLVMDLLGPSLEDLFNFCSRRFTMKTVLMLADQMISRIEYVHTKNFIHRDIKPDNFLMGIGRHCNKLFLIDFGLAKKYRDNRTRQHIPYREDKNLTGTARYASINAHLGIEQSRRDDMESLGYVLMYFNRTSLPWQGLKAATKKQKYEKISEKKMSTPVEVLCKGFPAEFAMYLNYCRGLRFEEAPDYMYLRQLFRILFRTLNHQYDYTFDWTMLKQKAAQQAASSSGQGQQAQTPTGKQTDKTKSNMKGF
UniProt P48730: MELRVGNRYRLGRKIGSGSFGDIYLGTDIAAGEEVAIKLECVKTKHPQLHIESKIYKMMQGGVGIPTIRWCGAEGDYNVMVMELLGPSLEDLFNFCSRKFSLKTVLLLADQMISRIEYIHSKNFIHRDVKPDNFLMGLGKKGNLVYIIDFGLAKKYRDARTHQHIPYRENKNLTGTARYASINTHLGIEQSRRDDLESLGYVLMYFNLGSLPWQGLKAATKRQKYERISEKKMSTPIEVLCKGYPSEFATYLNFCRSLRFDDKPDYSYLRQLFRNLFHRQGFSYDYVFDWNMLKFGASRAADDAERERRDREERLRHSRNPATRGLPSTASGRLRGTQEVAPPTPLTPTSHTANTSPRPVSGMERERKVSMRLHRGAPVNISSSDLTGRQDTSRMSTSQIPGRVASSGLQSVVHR

No constants are given. Whether binding was seen depends on the method and setting. In cells and extracts the contact can be indirect. Some binding calls cover weakened binding; strength is not graded here. Sequences can lack the tags named with a protein.

Targets include Myc-Cullin 1 (UniProt Q13616); Myc-Cullin 2 (UniProt Q13617); Myc-Cullin 3 (UniProt Q13618); Myc-Cullin 5 (UniProt Q93034); Myc-Skp1 (UniProt P63208); Myc-CKIα (UniProt P48729); Myc-CKIδ (UniProt P48730).
What all share (experiment): co-IP; lysates of transfected HeLa or 293 T cells in EBC buffer (50 mM Tris pH 8.0, 120 mM NaCl, 0.5% NP-40); 800 μg lysate with 1-2 μg antibody overnight at 4 °C, carrier beads 1 h, washes in NETN buffer, immunoblot; in some panels cells were treated with D4476 or UVC

B1: Flag-Set8 (protein, UniProt Q9NQR1 1-393)
chain: MGEGGAAAALVAAAAAAAAAAAAVVAGQRRRRLGRRARCHGPGRAAGGKMSKPCAVEAAAAAVAATAPGPEMVERRGPGRPRTDGENVFTGQSKIYSYMSPNKCSGMRFPLQEENSVTHHEVKCQGKPLAGIYRKREEKRNAGNAVRSAMKSEEQKIKDARKGPLVPFPNQKSEAAEPPKTPPSSCDSTNAAIAKQALKKPIKGKQAPRKKAQGKTQQNRKLTDFYPVRRSSRKSKAELQSEERKRIDELIESGKEEGMKIDLIDGKGRGVIATKQFSRGDFVVEYHGDLIEITDAKKREALYAQDPSTGCYMYYFQYLSKTYCVDATRETNRLGRLINHSKCGNCQTKLHDIDGVPHLILIASRDIAAGEELLYDYGDRSKASIEAHPWLKH
Consider B1, for which the binding entry is given as “binds” in the assay with Myc-Cullin 1; “no binding” with Myc-Cullin 2; “no binding” in the assay with Myc-Cullin 3; “no binding” in the assay with Myc-Cullin 5; “binds” with Myc-Skp1.

B2: HA-Set8 (protein, UniProt Q9NQR1 1-393)
chain: MGEGGAAAALVAAAAAAAAAAAAVVAGQRRRRLGRRARCHGPGRAAGGKMSKPCAVEAAAAAVAATAPGPEMVERRGPGRPRTDGENVFTGQSKIYSYMSPNKCSGMRFPLQEENSVTHHEVKCQGKPLAGIYRKREEKRNAGNAVRSAMKSEEQKIKDARKGPLVPFPNQKSEAAEPPKTPPSSCDSTNAAIAKQALKKPIKGKQAPRKKAQGKTQQNRKLTDFYPVRRSSRKSKAELQSEERKRIDELIESGKEEGMKIDLIDGKGRGVIATKQFSRGDFVVEYHGDLIEITDAKKREALYAQDPSTGCYMYYFQYLSKTYCVDATRETNRLGRLINHSKCGNCQTKLHDIDGVPHLILIASRDIAAGEELLYDYGDRSKASIEAHPWLKH
B2: the binding entry with Myc-CKIα and in the assay with Myc-CKIδ was “binds” throughout.

B3: Flag-Set8^S253A (protein, UniProt Q9NQR1 1-393)
chain: MGEGGAAAALVAAAAAAAAAAAAVVAGQRRRRLGRRARCHGPGRAAGGKMSKPCAVEAAAAAVAATAPGPEMVERRGPGRPRTDGENVFTGQSKIYSYMSPNKCSGMRFPLQEENSVTHHEVKCQGKPLAGIYRKREEKRNAGNAVRSAMKSEEQKIKDARKGPLVPFPNQKSEAAEPPKTPPSSCDSTNAAIAKQALKKPIKGKQAPRKKAQGKTQQNRKLTDFYPVRRSSRKSKAELQSEERKRIDELIEAGKEEGMKIDLIDGKGRGVIATKQFSRGDFVVEYHGDLIEITDAKKREALYAQDPSTGCYMYYFQYLSKTYCVDATRETNRLGRLINHSKCGNCQTKLHDIDGVPHLILIASRDIAAGEELLYDYGDRSKASIEAHPWLKH
As to B3, the binding entry in the assay with Myc-Cullin 1 and with Myc-Skp1 was “no binding” each time.
